± gives the standard deviation of the averaged measurements.
Assay: total protein half-life in vivo (active degradation + dilution); higher = more stable protein
[1] = E. coli NCM3722 delta-clpP delta-lon delta-hslV, growth: N-lim chemostat, doubling time 6 h
[2] = wild type E. coli NCM3722, growth: C-lim chemostat, doubling time 6 h
[3] = wild type E. coli NCM3722, growth: N-lim chemostat, doubling time 6 h
[4] = wild type E. coli NCM3722, growth: N-lim chemostat, doubling time 12 h
[5] = wild type E. coli NCM3722, growth: P-lim chemostat, doubling time 6 h
[6] = wild type E. coli NCM3722, growth: P-lim chemostat, doubling time 12 h
[7] = E. coli NCM3722 delta-clpP, growth: N-lim chemostat, doubling time 6 h
[8] = E. coli NCM3722 delta-hslV, growth: N-lim chemostat, doubling time 6 h
[9] = E. coli NCM3722 delta-lon, growth: N-lim chemostat, doubling time 6 h
[10] = E. coli NCM3722 delta-smpB, growth: N-lim chemostat, doubling time 6 h
[11] = wild type E. coli NCM3722, growth: C-lim chemostat, doubling time 3 h
[12] = wild type E. coli NCM3722, growth: C-lim chemostat, doubling time 12 h

Sequence	total protein half-life in vivo [1]	total protein half-life in vivo [2]	total protein half-life in vivo [3]	total protein half-life in vivo [4]	total protein half-life in vivo [5]	total protein half-life in vivo [6]	total protein half-life in vivo [7]	total protein half-life in vivo [8]	total protein half-life in vivo [9]	total protein half-life in vivo [10]	total protein half-life in vivo [11]	total protein half-life in vivo [12]
MTDLFSSPDHTLDALGLRCPEPVMMVRKTVRNMQPGETLLIIADDPATTRDIPGFCTFMEHELVAKETDGLPYRYLIRKGG [P0A890]	> 8 h	6.16 h	4.32 h	7.48 h	5.38 h	11.6 h						
MATGKIVQVIGAVVDVEFPQDAVPRVYDALEVQNGNERLVLEVQQQLGGGIVRTIAMGSSDGLRRGLDVKDLEHPIEVPVGKATLGRIMNVLGEPVDMKGEIGEEERWAIHRAAPSYEELSNSQELLETGIKVIDLMCPFAKGGKVGLFGGAGVGKTVNMMELIRNIAIEHSGYSVFAGVGERTREGNDFYHEMTDSNVIDKVSLVYGQMNEPPGNRLRVALTGLTMAEKFRDEGRDVLLFVDNIYRYTLAGTEVSALLGRMPSAVGYQPTLAEEMGVLQERITSTKTGSITSVQAVYVPADDLTDPSPATTFAHLDATVVLSRQIASLGIYPAVDPLDSTSRQLDPLVVGQEHYDTARGVQSILQRYQELKDIIAILGMDELSEEDKLVVARARKIQRFLSQPFFVAEVFTGSPGKYVSLKDTIRGFKGIMEGEYDHLPEQAFYMVGSIEEAVEKAKKL [P0ABB4]	6.94 ± 0.77 h	6.46 ± 0.099 h	5.87 ± 0.27 h	12.3 ± 0.31 h	6.32 ± 0.19 h	13.28 ± 0.046 h	6.64 ± 0.56 h	7.03 ± 0.67 h	6.31 ± 0.26 h	5.674 ± 0.045 h	3.485 ± 0.02 h	12.42 ± 0.062 h
MSQHLPLVAAQPGIWMAEKLSELPSAWSVAHYVELTGEVDSPLLARAVVAGLAQADTLRMRFTEDNGEVWQWVDDALTFELPEIIDLRTNIDPHGTAQALMQADLQQDLRVDSGKPLVFHQLIQVADNRWYWYQRYHHLLVDGFSFPAITRQIANIYCTWLRGEPTPASPFTPFADVVEEYQQYRESEAWQRDAAFWAEQRRQLPPPASLSPAPLPGRSASADILRLKLEFTDGEFRQLATQLSGVQRTDLALALAALWLGRLCNRMDYAAGFIFMRRLGSAALTATGPVLNVLPLGIHIAAQETLPELATRLAAQLKKMRRHQRYDAEQIVRDSGRAAGDEPLFGPVLNIKVFDYQLDIPDVQAQTHTLATGPVNDLELALFPDVHGDLSIEILANKQRYDEPTLIQHAERLKMLIAQFAADPALLCGDVDIMLPGEYAQLAQLNATQVEIPETTLSALVAEQAAKTPDAPALADARYLFSYREMREQVVALANLLRERGVKPGDSVAVALPRSVFLTLALHAIVEAGAAWLPLDTGYPDDRLKMMLEDARPSLLITTDDQLPRFSDVPNLTSLCYNAPLTPQGSAPLQLSQPHHTAYIIFTSGSTGRPKGVMVGQTAIVNRLLWMQNHYPLTGEDVVAQKTPCSFDVSVWEFFWPFIAGAKLVMAEPEAHRDPLAMQQFFAEYGVTTTHFVPSMLAAFVASLTPQTARQSCATLKQVFCSGEALPADLCREWQQLTGAPLHNLYGPTEAAVDVSWYPAFGEELAQVRGSSVPIGYPVWNTGLRILDAMMHPVPPGVAGDLYLTGIQLAQGYLGRPDLTASRFIADPFAPGERMYRTGDVARWLDNGAVEYLGRSDDQLKIRGQRIELGEIDRVMQALPDVEQAVTHACVINQAAATGGDARQLVGYLVSQSGLPLDTSALQAQLRETLPPHMVPVVLLQLPQLPLSANGKLDRKALPLPELKAQAPGRAPKAGSETIIAAAFSSLLGCDVQDADADFFALGGHSLLAMKLAAQLSRQVARQVTPGQVMVASTVAKLATIIDAEEDSTRRMGFETILPLREGNGPTLFCFHPASGFAWQFSVLSRYLDPQWSIIGIQSPRPNGPMQTAANLDEVCEAHLATLLEQQPHGPYYLLGYSLGGTLAQGIAARLRARGEQVAFLGLLDTWPPETQNWQEKEANGLDPEVLAEINREREAFLAAQQGSTSTELFTTIEGNYADAVRLLTTAHSVPFDGKATLFVAERTLQEGMSPERAWSPWIAELDIYRQDCAHVDIISPGTFEKIGPIIRATLNR		7.52 h		5.32 h	4.99 ± 0.083 h	9.11 h				3.85 h	3.17 ± 0.14 h	15.2 h
MENLNMDLLYMAAAVMMGLAAIGAAIGIGILGGKFLEGAARQPDLIPLLRTQFFIVMGLVDAIPMIAVGLGLYVMFAVA	6.29 ± 0.21 h	5.929 ± 0.0094 h	5.88 ± 0.14 h	10.6 ± 2.8 h	6.16 ± 0.19 h	12.3 ± 0.87 h	6.13 ± 0.89 h	5.79 ± 0.12 h	4.94 ± 0.5 h	6 ± 0.6 h	3.37 ± 0.19 h	11.1 ± 2.1 h
MASENMTPQDYIGHHLNNLQLDLRTFSLVDPQNPPATFWTINIDSMFFSVVLGLLFLVLFRSVAKKATSGVPGKFQTAIELVIGFVNGSVKDMYHGKSKLIAPLALTIFVWVFLMNLMDLLPIDLLPYIAEHVLGLPALRVVPSADVNVTLSMALGVFILILFYSIKMKGIGGFTKELTLQPFNHWAFIPVNLILEGVSLLSKPVSLGLRLFGNMYAGELIFILIAGLLPWWSQWILNVPWAIFHILIITLQAFIFMVLTIVYLSMASEEH [P0AB98]	6.3597 ± 0.0041 h	5.318 ± 0.026 h	5.99 h	11.7 ± 0.62 h	5.446 ± 0.051 h	12 ± 1.3 h	6 ± 0.46 h	6.43 ± 0.35 h	5.97 ± 0.19 h	6.41 ± 0.79 h	3.04 ± 0.043 h	12.2 ± 0.71 h
MQLNSTEISELIKQRIAQFNVVSEAHNEGTIVSVSDGVIRIHGLADCMQGEMISLPGNRYAIALNLERDSVGAVVMGPYADLAEGMKVKCTGRILEVPVGRGLLGRVVNTLGAPIDGKGPLDHDGFSAVEAIAPGVIERQSVDQPVQTGYKAVDSMIPIGRGQRELIIGDRQTGKTALAIDAIINQRDSGIKCIYVAIGQKASTISNVVRKLEEHGALANTIVVVATASESAALQYLAPYAGCAMGEYFRDRGEDALIIYDDLSKQAVAYRQISLLLRRPPGREAFPGDVFYLHSRLLERAARVNAEYVEAFTKGEVKGKTGSLTALPIIETQAGDVSAFVPTNVISITDGQIFLETNLFNAGIRPAVNPGISVSRVGGAAQTKIMKKLSGGIRTALAQYRELAAFSQFASDLDDATRKQLDHGQKVTELLKQKQYAPMSVAQQSLVLFAAERGYLADVELSKIGSFEAALLAYVDRDHAPLMQEINQTGGYNDEIEGKLKGILDSFKATQSW [P0ABB0]	6.41 ± 0.56 h	6.56 ± 0.27 h	5.95 ± 0.18 h	11.3 ± 0.15 h	6.239 ± 0.024 h	13.3 ± 0.61 h	6.8 ± 1 h	6.21 ± 0.088 h	5.627 ± 0.0075 h	5.74 ± 0.22 h	3.23 ± 0.076 h	11.6 ± 0.57 h

— the supplement of paper PMC11246515
